# Experimental data: the BET-seq Pho4 binding data (Le et al. 2018)
# This is one part of the list. Values were computed here from the reads of four pooled replicates and scatter widely.
# Molecular target: T1, Pho4 (S. cerevisiae) (UniProt P07270)
# T1 sequence: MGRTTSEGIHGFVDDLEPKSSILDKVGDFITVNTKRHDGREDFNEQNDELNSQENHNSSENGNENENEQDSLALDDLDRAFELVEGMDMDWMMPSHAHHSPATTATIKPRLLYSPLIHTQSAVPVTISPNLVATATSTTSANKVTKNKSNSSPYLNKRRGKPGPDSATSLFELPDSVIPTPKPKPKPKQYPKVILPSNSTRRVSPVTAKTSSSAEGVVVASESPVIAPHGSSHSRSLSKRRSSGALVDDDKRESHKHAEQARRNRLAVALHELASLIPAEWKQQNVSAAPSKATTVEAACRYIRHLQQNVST
# Experiment: relative binding free energy (BET-seq); higher = weaker binding
# Details: reference: library average
row,Sequence,relative binding free energy [kJ/mol]
1,GGAGGCACGTGACAGT,-0.209
2,TTGTGCACGTGGCATG,-0.544
3,TCAAGCACGTGGCGTT,-0.0418
4,AGAGGCACGTGAGGAA,0.293
5,CGTTTCACGTGACTGG,1.26
6,GATAACACGTGTGTAT,0.544
7,GGGTGCACGTGTGGCG,0.669
8,TGTAGCACGTGAAGGC,0.377
9,TGCGGCACGTGGATGA,-0.335
10,AGTAACACGTGATTTG,0.544
11,TGGGTCACGTGTTTCA,0
12,AGGCGCACGTGGAATG,0.209
13,GCTGCCACGTGTTGTT,-0.167
14,GAAGTCACGTGTTTTA,0.167
15,CTGATCACGTGGTGGC,0.544
16,GTTGCCACGTGAGCGG,0.628
17,ACTATCACGTGGTTTA,0.795
18,TTTTTCACGTGATCTA,1.13
19,TGGCGCACGTGGTTTT,-0.669
20,CGGTCCACGTGGGGGG,-0.753
21,TTACTCACGTGGCGTT,0.669
22,TAGGTCACGTGTGCTG,0.293
23,TTTTGCACGTGATTCG,0.0418

row,Sequence,relative binding free energy [kJ/mol]
1,TGTGTCACGTGCCTGA,0
2,GGTGTCACGTGGACTT,0.0837
3,CTGCTCACGTGTGTTG,1.05
4,TAGTACACGTGATGTG,0.711
5,GGCAGCACGTGGGCGT,-0.669
6,GTTCACACGTGAATTT,2.01
7,ACGCTCACGTGTTGGT,0.962
8,TGGTGCACGTGTTACG,-0.418
9,CTGGGCACGTGTGCGA,-0.0837
10,CGGTACACGTGGGCGA,0.335
11,ATAGTCACGTGGAGGA,0.502
12,AGAGTCACGTGGGCGA,-0.293
13,ATTGGCACGTGTTGTG,-0.377
14,ATAGGCACGTGTTGCG,-0.251
15,TCTGCCACGTGTGGGG,-0.418
16,TAAGGCACGTGAGTCT,0.0418
17,ATGTGCACGTGCAGAT,0
18,ATTTGCACGTGTGGAT,0.167
19,GGAAACACGTGATTGG,0.711
20,GGCCGCACGTGTGGTT,0.209
21,GTGGGCACGTGTTGAC,-0.879
22,CGCAGCACGTGGTGTA,-0.46
23,CGGTGCACGTGTTGAG,0.293

row,Sequence,relative binding free energy [kJ/mol]
1,TCGTCCACGTGGAGGT,0.209
2,GGTGTCACGTGATATG,1.05
3,AGCGGCACGTGAGGTA,0.92
4,AGTAGCACGTGCGATT,-0.0837
5,TCGGCCACGTGATGGT,0.628
6,TGAAACACGTGGCTGG,-0.126
7,CTCTACACGTGTGGGG,0.335
8,GCTTACACGTGTGTGG,0.46
9,CTTTTCACGTGTGTTC,1.34
10,TGTGCCACGTGGGGCA,-1.3
11,AATGGCACGTGGGCTT,-0.669
12,GAGGGCACGTGTATAG,-0.46
13,CTAAGCACGTGTGGTA,-0.251
14,GCTTTCACGTGGGCGT,1.09
15,TTCGGCACGTGGATAG,-0.586
16,TTGATCACGTGGAGGT,0.126
17,AGAAACACGTGGAGGT,0.92
18,TGCTGCACGTGAGGGG,0.879
19,TTTAACACGTGGTTGG,0.167
20,TGTACCACGTGGGATG,-0.753
21,TATTGCACGTGAGGTA,0.418
22,GTATTCACGTGGTATC,0.879
23,ATGTACACGTGGGGTC,-0.46

row,Sequence,relative binding free energy [kJ/mol]
1,TAGGGCACGTGTACGT,0.167
2,ATGGTCACGTGGTAAC,0.251
3,TAAGACACGTGGGGAG,-0.126
4,AATGGCACGTGTTGCA,0.126
5,CGGGACACGTGGGGTT,-0.335
6,GGGTACACGTGGCCTG,-0.126
7,CGTAGCACGTGCTGGT,-0.544
8,CTGAACACGTGGGGTG,-1.3
9,TTCTTCACGTGCTTTA,1.67
10,GGGAGCACGTGTTCGA,-0.293
11,TTGGACACGTGAGGTC,0.837
12,GAGGTCACGTGTTGAA,1.13
13,TTTGGCACGTGGCTAG,-0.92
14,TGTTTCACGTGTAATC,1.05
15,GGACTCACGTGTTGGG,0.628
16,TTGAGCACGTGTAGAG,-0.251
17,AGGGACACGTGATTGA,0.711
18,GTGTTCACGTGCTTGA,1.34
19,TAATTCACGTGTTAAA,0.711
20,TTGTACACGTGAACTG,0.628
21,CTGATCACGTGGGAGT,0.251
22,TTAATCACGTGAAAGG,1.67
23,CGTTACACGTGTAGTA,0.837

row,Sequence,relative binding free energy [kJ/mol]
1,ATATACACGTGTGTTA,-0.502
2,ATTTGCACGTGAGGTA,0.669
3,GGTTCCACGTGCTTTT,0.418
4,ATGGGCACGTGGTGCC,-0.962
5,AATAGCACGTGGATTT,0.293
6,GTGAACACGTGAGGGA,1.67
7,GTTAGCACGTGAGTGG,0.92
8,TGTGACACGTGGAGGA,-0.167
9,ATGGGCACGTGTGAAA,0.0418
10,AGGCGCACGTGGGGGC,-1.09
11,TAAGTCACGTGGTGCC,0.126
12,TGTAACACGTGACGTG,0.126
13,TTAAGCACGTGGTCAT,-0.753
14,TTAGTCACGTGCTGAT,0.879
15,GGTGGCACGTGGGGGA,-0.711
16,CATGGCACGTGTCTGG,-0.377
17,AAGTCCACGTGATTTT,1.67
18,TCATGCACGTGTATGT,-0.251
19,CAGTACACGTGTGGGT,0.377
20,GAGGGCACGTGATATG,-0.377
21,ACTGTCACGTGGTGCG,-0.0837
22,TTAGACACGTGTCGTT,0
23,AAAGGCACGTGGAGGT,-0.544
